Source: the RNAGym collection of RNA variant scans (doi:10.7554/elife.90254)
Read counts are not given, so values of variants with three or more changes are uncertain.

B1: LINE1-full (parent)
chain: UACGUAGGUGGUUUUCCCCUGAUAGUGCUAAGGGGGCCUGGAAGUUUGGACUGGGCAGAGCUCAACACAGCGUGGCAAAGUGGCUGUGGCUAGACUGCCUCUCUGGAUUCCUCGUCACUCAGCAGGGCAUCUCUGAGAGAAAUGCC

Variants of: B1
Assay: self-cleavage, relative activity (ratio to wild type); higher = more cleavage; in vitro, sequencing; the parent is a self-cleaving ribozyme
G44A G83U A121G A136G showed a self-cleavage of 1.01.
Variant U46C G49C A121G A142G has a self-cleavage of 1.31.
Variant G44A A64G U115C has a self-cleavage of 0.
For U45G A65G G74A U119C C131A, the self-cleavage was 0.08.
U45G A117G A138U showed a self-cleavage of 1.45.
U46C U132C A140G showed a self-cleavage of 1.25.
Variant U45A A69G U115C U134C has a self-cleavage of 0.
U46G U62C A69U A77G gave a self-cleavage of 0.04.
In the case of U47C A59G A138G A142G, the self-cleavage is reported as 0.
U45A A79G U102A showed a self-cleavage of 1.52.
With U47A A65G U119C U130A the self-cleavage was 0.06.
For U47C A69U U132A, the self-cleavage was 0.01.
For U45C A65G G97U, the self-cleavage was 0.
With U46C C71U U96A A117G C120U the self-cleavage was 0.06.
In the case of U47C A59G U85C, the self-cleavage is reported as 0.
U45A U73A U134A showed a self-cleavage of 1.26.
Variant U46C G88U U102A has a self-cleavage of 0.09.
Variant U47A U85C C90U G114U has a self-cleavage of 0.01.
U47A A57G U62C gave a self-cleavage of 0.08.
U47C A64U A79U showed a self-cleavage of 1.09.
U45C U46C A57U G72A U115C showed a self-cleavage of 0.24.
For U45C U62C U87A, the self-cleavage was 0.14.
Variant U47A G60A A117U has a self-cleavage of 0.03.
In the case of U45A A65G A141G, the self-cleavage is reported as 0.06.
Work on U45A C71A G89A yielded a self-cleavage of 0.02.
Variant U45C G54A A65G U85C has a self-cleavage of 0.05.
For A43U U81C U87G, the self-cleavage was 0.4.
Variant U47C A79G U109C A141G has a self-cleavage of 2.36.
U45C A78G C111U gave a self-cleavage of 1.01.
U46C C76A A117G showed a self-cleavage of 1.94.
U45G U52C U143A showed a self-cleavage of 0.33.
With U45C A79G U102C the self-cleavage was 1.84.
Work on U46C U52C G82A G126A A138U U143A yielded a self-cleavage of 1.15.
With U46C A77G C113A the self-cleavage was 1.58.
Variant U45A A57C U85A has a self-cleavage of 0.16.
In the case of U45C A50G A69C G74A, the self-cleavage is reported as 0.
U45C A69U U100C U115C showed a self-cleavage of 0.
A43U U62C A65G A79G gave a self-cleavage of 0.
For U47A A57G C120U, the self-cleavage was 1.08.
Work on U46C U104C U119A yielded a self-cleavage of 1.47.
U45A A69G U81C showed a self-cleavage of 0.6.
With U46C U62C U100C the self-cleavage was 0.17.
Work on U46A A129G A141G yielded a self-cleavage of 1.55.
Variant U46C A94G A107G has a self-cleavage of 1.58.
U46C U62C A141G gave a self-cleavage of 0.14.
For U46C U112A A136U, the self-cleavage was 1.74.
For U45A U47C U115C G126A, the self-cleavage was 1.9.
For U47C A64C U91A C120U A124G, the self-cleavage was 0.16.
U47C A67U U81G U119C U132A gave a self-cleavage of 0.46.
U46C A65G A138G gave a self-cleavage of 0.
In the case of U45A G106A A121U, the self-cleavage is reported as 1.16.
In the case of U46A U119A A141G, the self-cleavage is reported as 1.74.
Variant U45C U52C U96A U100C A142G has a self-cleavage of 0.
U45G A67G U73C A142G showed a self-cleavage of 0.
Work on U46C A69G A138G A142G yielded a self-cleavage of 2.76.
U47C A57U A107G U143C showed a self-cleavage of 0.
With U46A A69G U100C A124U A141G the self-cleavage was 1.
U47C A107G C123A A124G gave a self-cleavage of 0.51.
Work on U47C A59G A78G yielded a self-cleavage of 0.
For U46C A78G A107U A124U, the self-cleavage was 1.66.
For G44A A57G G58A U62C U81A G127A, the self-cleavage was 0.01.
For U47C A67U A77U U104C, the self-cleavage was 0.21.
With U45C U62C A136G the self-cleavage was 0.
With U47A A117U A142G the self-cleavage was 1.14.
For U47A A57U U96G, the self-cleavage was 0.07.
For U46C U52C A107G, the self-cleavage was 0.56.
In the case of U45C A69G C84U, the self-cleavage is reported as 0.04.
Variant U45C U85A A94U A141G has a self-cleavage of 0.09.
For G44A U45C G89U A121G U132C, the self-cleavage was 0.04.
In the case of U47A A69U A129U, the self-cleavage is reported as 0.05.
With U45C U102C U130C the self-cleavage was 2.76.
U45A A64G U115A U132C A138U showed a self-cleavage of 0.24.
Variant U45C U47A U112C has a self-cleavage of 0.
In the case of U47C A67C U85C U87A U115A A138G, the self-cleavage is reported as 0.
With U46A A94G U134C the self-cleavage was 0.19.
In the case of G44U A59G C111U U119C, the self-cleavage is reported as 0.07.
With U47A A65G U115A the self-cleavage was 0.
In the case of U45A U52C A92G A117U, the self-cleavage is reported as 0.04.
U47C A64G A65G C84U C128U gave a self-cleavage of 0.03.
Work on U45A A77G A142G yielded a self-cleavage of 2.25.
Variant U46A U87C U134G has a self-cleavage of 0.33.
U46A U115C U132C showed a self-cleavage of 1.96.
U45C U52A U115C showed a self-cleavage of 2.
For U47C A65G A77U, the self-cleavage was 0.1.
U47C A138G A140G showed a self-cleavage of 0.57.
Work on U46A U104A A136G yielded a self-cleavage of 1.41.
For U46A A57G U87A, the self-cleavage was 0.13.
In the case of U45A U73C A142G, the self-cleavage is reported as 1.57.
For U46A G55A U73C, the self-cleavage was 0.49.
In the case of U46A U52G G54U A107G U132C, the self-cleavage is reported as 0.4.
Work on U45C U85C A94U U134A yielded a self-cleavage of 0.
For U45C G82A A142G, the self-cleavage was 1.58.
Variant U47A A57U U134A has a self-cleavage of 0.16.
Variant U45G A59G A79G A142G has a self-cleavage of 0.
U46C U73C U100A showed a self-cleavage of 1.75.
Variant U45C U119C A142G has a self-cleavage of 2.78.
U45A U46C U104A A117U showed a self-cleavage of 1.48.
For U47C A64U U108C, the self-cleavage was 0.38.
For U45C A50G U52A U108A, the self-cleavage was 1.31.
U46C A50G A59G gave a self-cleavage of 0.2.
Variant U46A U81C U109A has a self-cleavage of 1.15.
In the case of U46A U112C A121C, the self-cleavage is reported as 1.23.
U45C G88A G127A showed a self-cleavage of 0.08.
For U45C A57U U102C, the self-cleavage was 0.
In the case of U46A G86A U112A U134C, the self-cleavage is reported as 0.03.
With U45C U102C A142G the self-cleavage was 0.9.
For U47A G54A U73C U91C, the self-cleavage was 0.15.
Variant U45C A57U U73A has a self-cleavage of 0.04.
U46C U73A A142G gave a self-cleavage of 1.84.
For U47A A92U U130A, the self-cleavage was 0.63.
For U45C A57U A59G U100C, the self-cleavage was 0.14.
Work on U45A U104C G144U yielded a self-cleavage of 1.51.
U46C G54A G55U A67G showed a self-cleavage of 0.03.
Variant U45C G48A C61U has a self-cleavage of 0.05.
U46C U134C A142G gave a self-cleavage of 0.63.
U47A A107G U134C gave a self-cleavage of 0.66.
Variant U46C C61A A69G U134A has a self-cleavage of 0.06.
With U46A U100C U115G the self-cleavage was 1.24.
Variant U46A U62C A142G has a self-cleavage of 0.04.
Variant A43U U62C C113A has a self-cleavage of 0.02.
In the case of U45C A107G A140G, the self-cleavage is reported as 0.53.
For G44A G80U C118A, the self-cleavage was 1.69.
In the case of U45C U46G U62C, the self-cleavage is reported as 0.31.
U45A U108C U112A showed a self-cleavage of 0.82.
Work on U46C U52A A59G G114U yielded a self-cleavage of 0.06.
U46C C76U U102A showed a self-cleavage of 0.7.
U46C U62A C103U A141G gave a self-cleavage of 0.06.
With G44C U52C C68A A141G the self-cleavage was 0.03.
With U47A U119A U143A the self-cleavage was 1.62.
Variant U46C U102A U115C G122A A142G has a self-cleavage of 1.84.
For U46C U85C G89U, the self-cleavage was 0.03.
In the case of U45C U85C U100C, the self-cleavage is reported as 0.
Work on U46C U73G U112A A136U A142G yielded a self-cleavage of 1.99.
For U46C G48A U104C A124G, the self-cleavage was 0.97.
Work on U47A C63U U112A yielded a self-cleavage of 0.25.
For U45C A69G U108C, the self-cleavage was 0.
U46C A117G A121U showed a self-cleavage of 2.04.
For U46C G106A U119A, the self-cleavage was 1.77.
For U46C A67U A69U C118U U119C, the self-cleavage was 0.03.
U46A G49C U108C C145A gave a self-cleavage of 1.38.
Work on U46C A79G A138C yielded a self-cleavage of 1.84.
U46C A69G A94G showed a self-cleavage of 1.62.
With U45C A79G G86A A136G the self-cleavage was 0.06.
With U47C A79G G106A U112C A124G G126A the self-cleavage was 1.81.
With U45C A69U A77U A107G U112A the self-cleavage was 0.06.
With U47C A94G U112C the self-cleavage was 0.
U46C U52A A64C A124G showed a self-cleavage of 0.63.
In the case of U46C A121G C123A, the self-cleavage is reported as 0.72.
A43U U52A A136G A140G showed a self-cleavage of 1.26.
In the case of U46C A79U G89A U100A, the self-cleavage is reported as 0.06.
Work on U46A G60C U115A A140G yielded a self-cleavage of 0.06.
For U47A U73A U102C G106A, the self-cleavage was 2.18.
Variant U45C A77G U91C has a self-cleavage of 0.84.
U46C U62G C103A showed a self-cleavage of 0.03.
Variant U46C A57U A77U has a self-cleavage of 0.18.
Work on U45A A64G U102C yielded a self-cleavage of 0.44.
With U46C A92G A107G U132C the self-cleavage was 0.
Work on U45C G55A U87A yielded a self-cleavage of 0.03.
With U46A G127A A129G the self-cleavage was 1.3.
With U46A U47A G72A A79G U102C the self-cleavage was 1.26.
Work on U45C C71U U87C yielded a self-cleavage of 0.03.
Variant U46A A69G G125A A136G has a self-cleavage of 0.13.
In the case of U47C A78G U96A, the self-cleavage is reported as 0.13.
With U46C A142G U143C the self-cleavage was 1.31.
For U45C G58A U81A A94U U108C, the self-cleavage was 0.03.
With U45C A79G C123U the self-cleavage was 0.66.
With U45C U102C U108C the self-cleavage was 0.77.
